Reference: PubChem BioAssay AID588855 (National Center for Advancing Translational Sciences (NCATS), 2011)
The campaign covered roughly 410,000 compounds. About 5,000 (1.2%) were called active. The inconclusive results got no clear call from the source; some entries with a clear call stand among them for comparison. Calls follow the shape of the dose curve; as a rule, active = well fitted inhibition curve with a large enough effect; inconclusive = small, poorly fitted or top-dose-only effect; inactive = no such curve, though single readings can be large or run the other way. Potencies beside an inconclusive call are fits to weak or partial responses and may not hold up.

Experiment: qHTS for Inhibitors of TGF-b; also: nearly all actives have a fitted effect of over 65% in size
Conditions: HepG2 CAGA-GFP TGF-b/SMAD3 reporter, GFP fluorescence, 18 h, TGF-beta stimulated, 500 pg/mL final; series mostly up to 46.1 µM; activity, negative = inhibition: at the top concentration
Outline: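 TGF-beta reporter screen: HEPG2 CAGA-GFP, 1% FBS, 500 pg/mL TGF-beta final, 18 h; per-cell GFP summed per well; curves fitted and categorized by class.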
% is scaled to controls: 0 for no effect and ±100 for the full control effect; potency is read from the fitted curve at half-maximal effect; tags tell the direction and shape of the fitted curve.

| SMILES | activity, negative = inhibition | Potency |
| --- | --- | --- |
| CC(=O)c1cccc(OCc2cc(C(=O)N3CCSCC3)no2)c1 | inactive: 22.7% | – |
| CC1=C(C(=O)OCC(C)C)C(c2ccccc2Cl)NC(=O)N1C (stereo not drawn) | – | inconclusive: 35.5 µM [inhibitor, single point] |
| COc1cccc(-c2c(-c3cc(OC)cc(OC)c3)n(C)c3ccc(Br)cc23)c1 | – | inconclusive: 3.16 µM [inhibitor, single point] |
| O=[N+]([O-])c1ccc(Cl)cc1C=NNc1ccccn1 | inactive: -6.49% | – |
| CN(C)S(=O)(=O)c1ccc(NC(=O)/C=C/c2ccccc2Cl)cc1 | – | inconclusive: 35.5 µM [inhibitor, single point] |
| Cc1cc(CNC(=O)[C@]2(C(F)(F)F)C[C@H](CCC3CCCCC3)CCCO2)nn1C | – | inconclusive: 22.4 µM [inhibitor, single point] |
| C=CCn1c(-c2cccnc2)n[nH]c1=S | inactive: 4.28% | – |
| COc1cc2c(cc1OC)C(c1ccc(-c3ccccc3Cl)o1)=NCC2 | – | inconclusive: 15.8 µM [inhibitor, partial curve, poor fit] |
| COC(=O)C1=C(C(=O)OC)[C@@H]2N(Cc3ccccc3)c3ccccc3[C@@]23C[C@@H](C(=O)OC)N(C(=O)COCc2ccccc2)C3=N1 | – | inconclusive: 35.5 µM [inhibitor, single point] |
| Cc1ccc(N(CC(=O)N2CCOCC2)S(C)(=O)=O)cc1C | – | inconclusive: 3.16 µM [inhibitor, single point] |
| COc1ccccc1NC(=O)CSc1nc(-c2cccc(Cl)c2)nc2c1Cc1c(CO)cnc(C)c1O2 | inactive: -0.857% | – |
| NC1=NC[C@@H](Cc2ccc(O)cc2)N1CCC12CC3CC(CC(C3)C1)C2 | – | active: 10 µM |
| CCc1nc(NC(C)(C)C)c2cnn(-c3ccccc3)c2n1 | – | inconclusive: 35.5 µM [inhibitor, single point] |
| COc1ccc(-c2noc(C3CCCN(C(=O)c4cccc(C)c4)C3)n2)cc1 (stereo not drawn) | – | inconclusive: 3.98 µM [inhibitor, partial curve] |
| O=C(CNC(=O)c1ccncc1)N/N=C/c1cc(Br)ccc1OCc1ccccc1 | – | inconclusive: 11.2 µM [inhibitor, partial curve] |
| CCOC(=O)C1=C(C)NC(C)=C(C(=O)OCC)C1C(=O)OCC(=O)N1CCc2ccccc21 | – | inconclusive: 25.1 µM [inhibitor, single point] |
| Cc1ccc(CCNC(=O)C2CCCN(S(=O)(=O)c3ccc4c(c3)oc(=O)n4C)C2)cc1 (stereo not drawn) | inactive: -9.42% | – |
| CN(/N=C/c1ccc(O)cc1O)c1ncc(C(F)(F)F)cc1Cl | – | inconclusive: 35.5 µM [inhibitor, partial curve, poor fit] |
